In PubChem BioAssay AID1508623 (National Center for Advancing Translational Sciences (NCATS), 2021):
About 450 (0.94%) of roughly 48,000 compounds were called active. Not shown: some 19% with an inconclusive outcome. The call rests on the fitted dose curve; in most records, active means well fitted inhibition curve with a large enough effect; inconclusive means small, poorly fitted or top-dose-only effect; inactive means no such curve, though single readings can be large or run the other way. This is one part of the list.

Assay: Primary qHTS for Identification of Small Molecule Inhibitors of Huntingtin Promoter Activity; further: nearly all actives have a fitted effect of over 50% in size
Conditions: HEK293 HTT promoter firefly luciferase reporter (activity 0% = vehicle and -100% = no light), 24 h; series mostly up to 57.5 µM; activity change, negative = inhibition: at the top concentration
In short: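 Firefly luciferase signal from promoter-reporter HEK293 cells was scaled between vehicle (0%) and zero RLU (-100%). Compounds were tested at final concentrations of up to 57.5 uM over 24 h at 37 degrees C. PTC124 at 50 uM final served as control inhibitor.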

SMILES | activity change, negative = inhibition
COc1ccc(NC(=O)C(Cc2ccccc2)NS(=O)(=O)c2ccc3c(c2)oc(=O)n3C)c(OC)c1 (stereo not drawn) | inactive: -24%
Cc1ccc(OCC(=O)OCc2cc(=O)n3ccsc3n2)cc1C | inactive: 2.61%
COc1ccccc1N1CCN(c2ncc3c(n2)CCN(Cc2ccccc2C)C3)CC1 | inactive: -6.93%
Cc1nc2ccc(S(=O)(=O)NCC(=O)NCc3ccc(Cl)cc3)cc2s1 | inactive: -19.6%
COc1ccc(OC(=O)c2cc(-c3ccc4c(c3)OCCO4)on2)cc1 | inactive: -3.16%
Cc1ccc(C)c(NC(=O)CSc2cn(CC(=O)N3CCCCC3)c3ccccc23)c1 | inactive: -8.34%
CCOc1ccc(NC(=O)Cn2c(=O)nc(-c3ccccc3)c3ccccc32)cc1 | inactive: -7.74%
Brc1ccc(-c2cn3cc(Cc4ccccc4)sc3n2)cc1 | inactive: 34.9%
CC1CCN(S(=O)(=O)c2ccc3[nH]ccc3c2)CC1 | inactive: -32.2%
CCOC(=O)c1ccc(NC(=O)c2noc3c2CCCC3)cc1 | inactive: -20.1%
O=C1NC(NS(=O)(=O)c2ccccc2)(C(F)(F)F)C(=O)N1CCc1ccccc1 (stereo not drawn) | inactive: -18.3%
CCOc1ccc(-c2cc3nc(C4CCN(C(=O)OC(C)(C)C)CC4)c(C(=O)Nc4cccc(Cl)c4C)cn3n2)cc1 | inactive: -20.1%
Cn1cc(CCCC(=O)NCc2ccc(F)cc2)c2ccccc21 | inactive: -13.8%
CC(NCCC(c1ccccc1)c1ccccc1)c1ccccc1 (stereo not drawn) | inactive: -22%
O=C(CCC(=O)N1CCOc2ccccc21)NCc1cccs1 | inactive: -3.09%
Cc1ccc2[nH]c3c(=O)n(CC(=O)N4CCN(c5ccccc5F)CC4)ncc3c2c1 | inactive: 3.77%
Cc1cc(N2CCN(C)CC2)nc2ccc(NC(=O)Nc3ccc(F)cc3)cc12 | inactive: 24.8%
O=S(=O)(NCCc1nnc2ccc(SCc3cccc(Cl)c3)nn12)c1ccccc1 | inactive: -20.6%
COc1ccc(Cn2c(CNC(=O)Cc3ccc(OC)c(OC)c3)nc3cccnc32)cc1 | inactive: -3.61%
O=C(Cn1c(=O)n(Cc2ccco2)c(=O)c2sc3ccccc3c21)Nc1ccc(F)cc1F | inactive: -13.6%
COc1ccc(-c2cc(C(F)(F)F)c(C#N)c(SCC(=O)Nc3cccc(C)c3)n2)cc1 | inactive: -11.9%
Cc1ccc(Cn2c(SCc3ccc(C(=O)O)cc3)nc3cccnc32)cc1 | inactive: -7.09%
O=c1[nH]c(=O)n(C2CCCO2)cc1F (stereo not drawn) | inactive: -10.2% [at 116 µM]
CSc1ncc(Cl)c(C(=O)Nc2c(C(=O)c3ccc(C)cc3)oc3ccccc23)n1 | inactive: -10.5%

SMILES | activity change, negative = inhibition
CCC(C)n1c(=O)c2sccc2n2c(CCCC(=O)Nc3ccc(F)cc3)nnc12 (stereo not drawn) | inactive: -20.6%
Cc1ccccc1-n1c(SCC(=O)c2ccccc2)nnc1-c1ccc(F)cc1 | inactive: -36.1%
Cc1ccc(SCC(=O)Nc2ccc(O)c(-c3nc4cc(C)ccc4o3)c2)cc1 | inactive: 72.4%
COc1ccc(NC(=O)c2ccco2)cc1NC(=O)c1cccc(C)c1OC | inactive: -29.2%
Cc1ccc2c(CN3CCN(c4ccc(Cl)cc4)CC3)cc(=O)oc2c1 | inactive: 3.55%
Cc1ccc(CNC(=O)CCCCCn2c(=O)c3sccc3n(CC(=O)C(C)(C)C)c2=O)cc1 | inactive: -21.4%
Cc1ccc(NC(=O)CSc2nc(=O)n(Cc3ccncc3)c3c2CCC3)cc1Cl | inactive: -12.8%
COc1ccc(Nc2ncc(C(=O)Nc3cccc(OC)c3)c3ccccc23)cc1 | inactive: 15.3%
Cc1ccc(Cl)cc1N(C)C(=O)c1sc2nc3n(c(=O)c2c1C)CCCC3 | inactive: -29.5%
COC(=O)c1cc(NC2(c3ccccc3)C(=O)c3ccccc3C2=O)cc(C(=O)OC)c1 | inactive: -10.2%
CC(C)(C)c1ccccc1NC(=O)c1cnn2c(C(F)F)cc(-c3ccccc3)nc12 | inactive: -6.48%
COc1ccccc1NC(=O)CSc1oc(-c2ccc(F)cc2)nc1S(=O)(=O)c1ccc(Br)cc1 | inactive: -10.9%
Cn1c(=O)c2c(SCC(=O)Nc3ccc(F)cc3F)nc(C3CCCC3)nc2n(C)c1=O | inactive: -1.05%
CCOC(=O)c1cnc(N2CCN(c3ccc(C)cc3C)CC2)c2ccccc12 | inactive: -16%
CSc1cccc(NC(=O)CN2C(=O)COc3ccc(S(=O)(=O)N4CCC(C)CC4)cc32)c1 | inactive: -14.2%
Cc1ccc(C)c(NC(=O)Cn2ccn(-c3ccc(F)cc3)c(=O)c2=O)c1 | inactive: -15.2%
C[C@]12CC[C@@H]3c4ccc(O)cc4C[C@@H](CCCCCCCCCS(=O)CCCC(F)(F)C(F)(F)F)[C@H]3[C@H]1CC[C@H]2O (stereo partly drawn) | inactive: -21.1%
OC1C(O)C(O)C(O)C(O)C1O (stereo not drawn) | inactive: -1.18%
Cc1ccc(-c2nc3c4ccccc4n(CC(=O)N4CCN(c5ccc(F)cc5)CC4)c(=O)n3n2)cc1 | inactive: 11.5%
CCC(C)NC(=O)Cn1c(-c2cccs2)cc2cc(Cl)ccc21 (stereo not drawn) | inactive: -13%
CCOC(=O)c1c(NC(=O)c2cc(-c3ccc(Cl)cc3)on2)sc(C)c1C | inactive: -4.09%
Cc1cc(N2CCC(C(=O)NCCC(C)C)CC2)n2nc(C)c(-c3ccc(Cl)cc3)c2n1 | inactive: -11.3%
Cc1ccc(CN(C(=O)c2ccccc2[N+](=O)[O-])c2ccccn2)cc1 | inactive: -24.3%
CC1CN(C(=O)CCC(=O)NCc2ccccc2)c2cc(Cl)ccc2O1 (stereo not drawn) | inactive: -19.2%
